In all, about 33,000 sequences were measured (“E-score (-0.5 to 0.5)”: median about -0.032, highest 2% from about 0.36 on). The list shows a part of the results.
target: T1, Sko1 (UniProt Q02100); experiment: PBM E-score (8-mer binding enrichment) (E-score (-0.5 to 0.5)); higher = stronger / more preferred TF binding; most listed sequences are background and not binding sites; details: protein concentration: 200 nM; construct: GST-full length
T1 sequence: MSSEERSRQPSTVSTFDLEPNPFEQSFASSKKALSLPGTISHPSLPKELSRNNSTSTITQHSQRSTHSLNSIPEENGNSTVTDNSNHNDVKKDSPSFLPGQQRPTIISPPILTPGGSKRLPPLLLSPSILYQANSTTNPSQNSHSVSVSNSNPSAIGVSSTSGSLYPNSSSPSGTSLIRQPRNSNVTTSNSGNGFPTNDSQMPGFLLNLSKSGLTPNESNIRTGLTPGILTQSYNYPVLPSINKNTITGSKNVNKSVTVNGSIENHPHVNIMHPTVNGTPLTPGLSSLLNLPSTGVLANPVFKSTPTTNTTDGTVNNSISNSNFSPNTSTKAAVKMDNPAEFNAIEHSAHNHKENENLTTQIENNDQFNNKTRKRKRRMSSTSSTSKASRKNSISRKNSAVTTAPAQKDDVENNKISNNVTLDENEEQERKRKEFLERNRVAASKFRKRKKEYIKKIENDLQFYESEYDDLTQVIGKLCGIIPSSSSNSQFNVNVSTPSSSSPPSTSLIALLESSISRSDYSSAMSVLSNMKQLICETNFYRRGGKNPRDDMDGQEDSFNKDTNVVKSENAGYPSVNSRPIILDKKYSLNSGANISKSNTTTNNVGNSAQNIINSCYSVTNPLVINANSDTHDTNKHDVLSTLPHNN
Procedure: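 Universal 'all 10-mer' protein binding microarrays (Agilent AMADID 015681) probed with GST-tagged S. cerevisiae TFs (full-length or DBD) made by in vitro transcription/translation (PURExpress), about 100-200 nM. Bound TF was detected with fluorescent anti-GST. Each ungapped 8-mer (which stands for itself and its reverse complement) is scored by the PBM enrichment score (E-score), a modified Wilcoxon-Mann-Whitney statistic from -0.5 to +0.5, computed with the Universal PBM Analysis Suite. Scale: above 0.35 generally sequence-specific binding.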

Going from ATTGCAAA to ATTTGTTG, the “PBM E-score” value rises from 0.00033 to 0.212.

First: AATGGAGA
Second: AGGCAAAG
The “PBM E-score” value of the first is lower: -0.101 for the first, -0.0571 for the second.

Going from ACTAGTCT to CGGTAGGA, the “PBM E-score” value falls from -0.117 to -0.235.

First: ATTCACGA
Second: GCCGCCGA
The “PBM E-score” value of the first is higher: 0.222 for the first, -0.105 for the second.

First: GACCCTGC
Second: AGGGATAA
The “PBM E-score” value of the first is lower: -0.219 for the first, 0.0363 for the second.

Compared with TACAAGTA, GCACCGGC is lower in “PBM E-score” value: 0.153 for the first, -0.151 for the second.

Compared with AGGGCGTA, ATCCTACG is higher in “PBM E-score” value: -0.0132 for the first, 0.116 for the second.

Going from CGTGCCGA to ATAGGGAG, the “PBM E-score” value falls from 0.0979 to -0.215.

Going from ATAATCCA to ATCTACAT, the “PBM E-score” value rises from 0.0742 to 0.227.

Compared with GGGTACGA, ATATCCAG is lower in “PBM E-score” value: 0.0659 for the first, -0.0263 for the second.

First: CCCACTTC
Second: TAAACATA
The “PBM E-score” value of the first is lower: -0.144 for the first, 0.199 for the second.

First: CCGGTCGA
Second: AAACATAA
The “PBM E-score” value of the first is lower: -0.355 for the first, 0.119 for the second.

Going from GATGTTCA to GACGGTCC, the “PBM E-score” value falls from -0.13 to -0.27.

Going from ACAAGTTG to CAACGGGC, the “PBM E-score” value falls from -0.041 to -0.0486.

First: AACAAACA
Second: AAATTTAG
The “PBM E-score” value of the first is lower: 0.101 for the first, 0.128 for the second.

Going from GCCAACGA to CCGGAGCG, the “PBM E-score” value rises from -0.186 to -0.124.

First: CCTGCGTC
Second: CTGTTATA
The “PBM E-score” value of the first is lower: 0.122 for the first, 0.177 for the second.

Compared with AAGCTATT, ACGACGAG is lower in “PBM E-score” value: 0.08 for the first, 0.00694 for the second.

Compared with GATTGTAA, CAACTTAG is higher in “PBM E-score” value: 0.121 for the first, 0.135 for the second.

First: AAACGGAG
Second: CCGAAGTC
The “PBM E-score” value of the first is higher: -0.0521 for the first, -0.193 for the second.

First: CTACGCCA
Second: GCACACCC
The “PBM E-score” value of the first is higher: 0.28 for the first, -0.106 for the second.

Compared with ACTACGCT, TCAGGGCA is lower in “PBM E-score” value: 0.153 for the first, -0.0833 for the second.

Compared with TGCATCCA, TCTGTTAA is higher in “PBM E-score” value: -0.142 for the first, 0.128 for the second.

Going from AGCACGCA to AAACCCCT, the “PBM E-score” value falls from 0.152 to -0.326.

Compared with ATTAGAAC, ACATGAGA is higher in “PBM E-score” value: 0.175 for the first, 0.184 for the second.

Going from ACGGGTTG to GGTAAGCA, the “PBM E-score” value falls from -0.0864 to -0.235.

Going from ATGGGCGC to GAGTGGTA, the “PBM E-score” value rises from -0.247 to -0.0433.

Going from GTCCCCAC to ATGTCAAT, the “PBM E-score” value rises from -0.115 to 0.226.

First: AGCCTGCG
Second: AATCGAAC
The “PBM E-score” value of the first is lower: -0.229 for the first, 0.0773 for the second.

First: ATCTTCGG
Second: GTTACAAC
The “PBM E-score” value of the first is higher: 0.155 for the first, 0.114 for the second.

Going from AAACTAAT to ATTTGGGA, the “PBM E-score” value falls from 0.275 to 0.0335.

Going from ACGTGCCT to ATCCCATC, the “PBM E-score” value falls from 0.239 to -0.0438.

Compared with GACTAGAA, CTTGGGTA is lower in “PBM E-score” value: 0.0577 for the first, -0.0702 for the second.

Compared with ATCGGCGG, ACATCAGC is higher in “PBM E-score” value: -0.176 for the first, 0.153 for the second.

First: CGGACCCC
Second: CTTCGAAC
The “PBM E-score” value of the first is higher: -0.113 for the first, -0.124 for the second.

First: TATAGGAA
Second: GCCACTCA
The “PBM E-score” value of the first is higher: 0.19 for the first, -0.118 for the second.

Compared with GACTCACC, CAGTTGTC is higher in “PBM E-score” value: -0.118 for the first, 0.0392 for the second.

Compared with GGACTGCA, GTATCAGA is higher in “PBM E-score” value: -0.168 for the first, 0.0996 for the second.

First: AGTACCCC
Second: AGGATGGA
The “PBM E-score” value of the first is higher: -0.241 for the first, -0.253 for the second.

Compared with ATTGCAAT, ATCGACAA is lower in “PBM E-score” value: 0.0317 for the first, -0.0524 for the second.

Going from AGCATGTC to GGATAACA, the “PBM E-score” value falls from -0.0862 to -0.128.

Compared with ACGTTCAA, ATATTAGG is lower in “PBM E-score” value: 0.266 for the first, 0.147 for the second.

Going from ATCAAAGA to GATTCGGC, the “PBM E-score” value falls from 0.00292 to -0.129.

First: GCCTATCC
Second: CCCTAGAG
The “PBM E-score” value of the first is higher: -0.11 for the first, -0.32 for the second.

Going from TAACGACA to GTAGCTCA, the “PBM E-score” value falls from 0.191 to 0.0173.

First: AAATACAT
Second: ACAACTGC
The “PBM E-score” value of the first is higher: 0.252 for the first, -0.079 for the second.

First: AGGGACCT
Second: ATGATCTG
The “PBM E-score” value of the first is lower: -0.209 for the first, 0.151 for the second.

Going from CGCTGTGC to CAACATCC, the “PBM E-score” value falls from -0.202 to -0.281.

Compared with CGACAAGC, CCGGGAGC is lower in “PBM E-score” value: -0.251 for the first, -0.296 for the second.

Compared with AGGCTGAG, CCAAAGTA is higher in “PBM E-score” value: -0.138 for the first, -0.0943 for the second.

First: GAAGTTAA
Second: CAAACCAC
The “PBM E-score” value of the first is lower: -0.0699 for the first, 0.0506 for the second.

Compared with ACATCAAT, ACATCAAC is lower in “PBM E-score” value: 0.285 for the first, 0.159 for the second.

First: AAACCCAG
Second: CCACCAAG
The “PBM E-score” value of the first is higher: -0.156 for the first, -0.374 for the second.

Going from GACCAAGC to AATAACAC, the “PBM E-score” value rises from -0.0837 to 0.139.

Compared with AACATCCA, ATCAATGC is lower in “PBM E-score” value: 0.0185 for the first, -0.112 for the second.

Compared with GGACAAAC, GAAAAGGA is higher in “PBM E-score” value: -0.0937 for the first, -0.0667 for the second.

Compared with ATAGCCAG, CCTGATCG is lower in “PBM E-score” value: -0.0476 for the first, -0.175 for the second.

Compared with ATTTGTGA, AAATTGAT is higher in “PBM E-score” value: -0.00762 for the first, 0.084 for the second.

Compared with TCCTGCCA, GAGCTAAA is higher in “PBM E-score” value: -0.292 for the first, -0.0589 for the second.

Compared with ACCTCCAA, ATGGAAAA is higher in “PBM E-score” value: -0.189 for the first, -0.0735 for the second.

Going from ACGGGTCA to AAAGCTTT, the “PBM E-score” value rises from -0.252 to -0.0511.

Going from ACTCAGAC to AGTACGGA, the “PBM E-score” value falls from -0.0311 to -0.0994.

First: ACAGCCCG
Second: AAAACAGT
The “PBM E-score” value of the first is lower: -0.163 for the first, 0.0855 for the second.

First: ATAGTCTC
Second: ACGCCTTG
The “PBM E-score” value of the first is higher: 0.0223 for the first, -0.0512 for the second.

Going from AGTCTGAA to AAAAGGCC, the “PBM E-score” value falls from 0.0457 to -0.186.

Going from AGAGAGAA to CTGATGGA, the “PBM E-score” value falls from -0.0788 to -0.118.

First: CCGGCTGC
Second: CAATAAAA
The “PBM E-score” value of the first is lower: -0.0698 for the first, 0.187 for the second.

Compared with AATCTCTG, AGAGGAAA is lower in “PBM E-score” value: -0.00643 for the first, -0.135 for the second.

First: CTGTAGAA
Second: GAGTCAGA
The “PBM E-score” value of the first is lower: -0.134 for the first, -0.0744 for the second.

Compared with CCAATTAA, AAAAACGG is lower in “PBM E-score” value: 0.00205 for the first, -0.117 for the second.

Compared with AGTGTTAA, AACTCCGA is lower in “PBM E-score” value: 0.128 for the first, -0.176 for the second.

Going from ACTAACAG to ACACAGAG, the “PBM E-score” value falls from 0.0358 to -0.0374.

Compared with CCGTTATA, ATGCATTA is higher in “PBM E-score” value: 0.0635 for the first, 0.26 for the second.

Going from GATAGCAA to AGGACAAT, the “PBM E-score” value falls from 0.16 to -0.14.

Going from ACTGAGCC to CAGAGAGA, the “PBM E-score” value falls from -0.0526 to -0.185.

Going from AAATCCAA to ATAACTGG, the “PBM E-score” value falls from 0.0927 to -0.132.

Compared with GAAGGAGA, CTAGCAAG is lower in “PBM E-score” value: 0.0914 for the first, -0.209 for the second.

Going from GGAGAACA to CAAACCTG, the “PBM E-score” value falls from -0.0204 to -0.0692.

First: GGTAAAAC
Second: ACAATCCG
The “PBM E-score” value of the first is higher: 0.157 for the first, -0.0353 for the second.

Compared with ATGGAGGA, CTGAGCGA is higher in “PBM E-score” value: 0.0757 for the first, 0.0843 for the second.

Going from AGGGCGCA to GAGGCCTA, the “PBM E-score” value rises from -0.175 to -0.097.

Going from CACGTATC to CAGGGTCA, the “PBM E-score” value falls from 0.393 to -0.168.

Going from CAAGGTGG to CACAACGA, the “PBM E-score” value rises from -0.192 to 0.113.

Going from CGCTGCCC to CCTTGTGA, the “PBM E-score” value rises from -0.336 to 0.014.

Going from CGGTTTCA to AGAAATTC, the “PBM E-score” value rises from -0.086 to 0.00511.

Going from AGCTAAGG to ACCACCAC, the “PBM E-score” value rises from -0.176 to 0.00488.
